This note sets out measurements from PubChem BioAssay AID360 (National Center for Advancing Translational Sciences (NCATS), 2006).

SMILES strings stand for the structures. The campaign covered roughly 48,000 compounds. About 550 (1.1%) were called active. Another 4% or so got no clear call; they are omitted. Cut-off read from the data, not from the text of the source: active = potency below about 15 µM; inconclusive = mostly about 16 µM to 33 µM; inactive = weaker than that. This is one part of the list. Some results are limits rather than exact numbers.
Potency is the fitted concentration of half-maximal effect.

For the experiment, the target named is Lysosomal acid glucosylceramidase (Homo sapiens) (UniProt P04062). The experiment in a line: Glucocerebrosidase.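 Note: the screen sought inhibitors.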 The settings on record: purified enzyme, resorufin glucoside fluorescence (screen aimed at inhibitors), 20 min. The gist of the method: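 Wild-type enzyme at 0.2 nM final in 50mM citric acid/KH2PO4, 10mM sodium taurocholate, 0.01% tween-20, pH 5.9, with resorufin beta-D-glucopyranoside at 30 uM final. Compounds titrated, 20 min at RT, red fluorescence read; AC50 from titration.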
UniProt P04062, sequence (P04062 whole entry, looked up): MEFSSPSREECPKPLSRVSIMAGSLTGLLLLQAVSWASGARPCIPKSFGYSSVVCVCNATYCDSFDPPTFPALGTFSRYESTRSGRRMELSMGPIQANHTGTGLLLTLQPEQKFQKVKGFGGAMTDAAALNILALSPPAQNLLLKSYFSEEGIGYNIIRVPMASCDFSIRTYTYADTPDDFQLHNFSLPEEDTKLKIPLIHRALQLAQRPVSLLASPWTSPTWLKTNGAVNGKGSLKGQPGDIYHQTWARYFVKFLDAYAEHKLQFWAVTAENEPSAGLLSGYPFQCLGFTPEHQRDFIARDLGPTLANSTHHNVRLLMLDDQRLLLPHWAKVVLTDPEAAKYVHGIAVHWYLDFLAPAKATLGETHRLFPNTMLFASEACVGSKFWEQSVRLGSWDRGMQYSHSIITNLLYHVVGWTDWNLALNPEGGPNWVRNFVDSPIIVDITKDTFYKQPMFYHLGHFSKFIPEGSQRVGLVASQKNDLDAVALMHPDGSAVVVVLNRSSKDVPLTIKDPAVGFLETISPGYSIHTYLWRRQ
In the case of `CCOC(=O)N1CCN(C(=O)c2ccc(CS(=O)(=O)c3ccccc3OC)o2)CC1`, the Potency was inactive: > 76.9 µM.

For `O=C(Nc1nccs1)Oc1ccccc1`, the Potency is inactive: > 76.9 µM.

Consider `CC(OC(=O)CCc1nc2ccccc2[nH]c1=O)C(=O)c1ccccc1` (configuration not stated), for which the Potency was inactive: > 76.9 µM.

As for `CCn1c(SCC(=O)N2CCN(c3ccc(Cl)cc3)CC2)nc2ccccc2c1=O`, the Potency was inactive: > 76.9 µM.

As for `COc1ccc(C(=O)NCC(c2ccc(F)cc2)N2CCOCC2)cc1S(=O)(=O)N1CCCC1` (configuration not stated), the Potency was inactive: > 76.9 µM.

`CCNC(=O)NC1(C(=O)Nc2ccc3c(c2)CCC3)CCCCC1`: the Potency was inactive: > 76.9 µM.

Take `O=C(CSc1nc2ccccc2c(=O)[nH]1)Nc1ccc(S(=O)(=O)N2CCCC2)cc1`: the Potency result was “inactive”.

With `O=C1NC2C(NC(=O)N2C2CCCCC2)N1C1CCCCC1` (configuration not stated), the Potency is inactive: > 76.9 µM.

As to `O=C(Nc1nnc(-c2ccccc2Cl)o1)c1ccco1`, the Potency is inactive: > 76.9 µM.

With `Cc1cnc(C(=O)Nc2ccccc2C(=O)N2CCOCC2)cn1`, the Potency is inactive: > 76.9 µM.

With `CCCCN(C)C(=O)C1CCN(C/C(C)=C/c2ccccc2)CC1`, the Potency was inactive: > 76.9 µM.

Consider `CCOC(=O)N1CCC(N(CCOC)C(=O)Nc2ccc(CC)cc2)CC1`, for which the Potency was inactive: > 76.9 µM.

In the case of `N#CC(C(=O)NCCc1ccccc1)c1nc2ccccc2nc1N1CCOCC1` (configuration not stated), the Potency was inactive: > 76.9 µM.

Consider `CCOc1cc(C(=S)N2CCN(C)CC2)ccc1OCC(=O)N1CCOCC1`, for which the Potency is inactive: > 76.9 µM.

Take `COC(=O)c1cc2oc(C)cc2n1CC(=O)N(C)c1ccccc1`: the Potency entry was “inactive”.

Take `Cc1ccc(NC(=O)N2C(=O)C3(OCCO3)c3ccccc32)cc1`: the Potency was inactive: > 76.9 µM.

Consider `COc1cccc(-c2nnc(SCCC(=O)O)n2C)c1`, for which the Potency was inactive: > 76.9 µM.

As for `O=C(c1ccc(F)cc1)N1CCN(c2ncccn2)CC1`, the Potency is inactive: > 76.9 µM.

`Cc1cccc(CN2CCN(CC(=O)NCCCN3CCCC3=O)C2=O)c1`: the Potency was inactive: > 76.9 µM.

In the case of `COc1ccc2nc(NC(=O)CCc3nc(-c4ccccc4F)no3)sc2c1`, the Potency was inactive: > 76.9 µM.

Turning to `COc1ccc2[nH]c(=O)c(CN(C(C)=O)C3CCCCC3)cc2c1`, the Potency was inactive: > 76.9 µM.

Turning to `Cc1ccc(CNn2cnnc2SCC(=O)NC(C)(C)C)cc1`, the Potency was inactive: > 76.9 µM.

As for `O=C1NC(c2ccc3c(c2)OCO3)Nc2ccccc21` (configuration not stated), the Potency is inactive: > 76.9 µM.

`O=C(NCc1cccs1)C1CCCN1S(=O)(=O)c1ccccc1F` (configuration not stated): the Potency was inactive: > 76.9 µM.

In the case of `CC(C)OCCCNc1nc2c(c(=O)n(Cc3ccccc3F)c(=O)n2C)n1C`, the Potency was inactive: > 76.9 µM.

As for `CCOC(=O)c1c(C)c(C(=O)NCc2ccccn2)c(C)n1CC`, the Potency was inactive: > 76.9 µM.

As for `Cn1c(=O)cc(SCC(=O)N2CCN(C3CCCCC3)CC2)c2ccccc21`, the Potency is inactive: > 76.9 µM.

For the compound `CN1c2cccc3cccc(c23)N(C)C1(C)C`, the Potency is inactive: > 76.9 µM.

Consider `O=S(=O)(c1ccc(Oc2ccc3oc4ccccc4c3c2)nc1)N1CCCC1`, for which the Potency was inactive: > 76.9 µM.

With `COc1cc(OC)c(C2C(C(=O)Nc3ccc(C)cc3C)=C(C)Nc3ncnn32)cc1OC` (configuration not stated), the Potency was inactive: > 76.9 µM.

With `O=C(NCc1cccc(Cl)c1)c1ccco1`, the Potency was inactive: > 76.9 µM.

With `CCOC(=O)C1=C(C)NC(=O)NC1c1cc(C)sc1C` (configuration not stated), the Potency was inactive: > 76.9 µM.

Take `CCCNS(=O)(=O)c1ccc(CCC(=O)NCc2ccco2)cc1`: the Potency was inactive: > 76.9 µM.

On to `C1=C(CCNC2=NCCCCC2)CCCC1`, for which the Potency was inactive: > 76.9 µM.

`Oc1ccccc1Oc1ncc(Br)c(N2CCOCC2)n1`: the Potency was inactive: > 76.9 µM.

In the case of `COc1cccc(OC)c1OCCCOc1c(OC)cccc1OC`, the Potency was inactive: > 76.9 µM.

As to `COc1ccc2[nH]cc(C(=O)CN3CCCCC3C)c2c1` (configuration not stated), the Potency was inactive: > 76.9 µM.

Turning to `CCOC(=O)c1c(NC(=O)CSc2nnnn2C)sc(CC)c1C`, the Potency was inactive: > 76.9 µM.

Turning to `COC(=O)CSc1nc2c(c(-c3ccc(C)o3)c1C#N)CCCC2`, the Potency is active: 15.3 µM.

For `CC1CCCCC1NC(=O)C1CCN(C(=O)NC2CCCCC2)CC1` (configuration not stated), the Potency is inactive: > 76.9 µM.

For the compound `CCOc1ccccc1-n1c(COc2ccccc2)nnc1SCC(N)=O`, the Potency is inactive: > 76.9 µM.

Take `O=C(Cn1cnc2c(oc3ccccc32)c1=O)c1ccccc1`: the Potency was inactive: > 76.9 µM.

For the compound `Cc1ccc(Cn2c(CN3CC(C)OC(C)C3)nc3c2c(=O)[nH]c(=O)n3C)cc1` (configuration not stated), the Potency is inactive: > 76.9 µM.

On to `O=C(c1cc2ccccc2c(=O)o1)N1CCc2ccccc2C1`, for which the Potency was inactive: > 76.9 µM.

On to `CCOc1cc(-c2c(C#N)c(N)nc3c2CCCC3C)ccc1O` (configuration not stated), for which the Potency was inactive: > 76.9 µM.

In the case of `COCCn1c(NCc2ccccc2)nc2c1c(=O)[nH]c(=O)n2C`, the Potency is inactive: > 76.9 µM.

For `O=C(Cc1ccc(S(=O)(=O)N2CCOCC2)s1)NCC1CCCCC1`, the Potency was inactive: > 76.9 µM.

For the compound `CCOC(=O)/C=c1\s/c(=C\c2ccccc2OC)c(=O)n1CC(=O)N1CCOCC1`, the Potency is inactive: > 76.9 µM.

Turning to `CC(=O)c1cccc(NC(=O)N[C@@H](CC(C)C)C(=O)O)c1`, the Potency is inactive: > 76.9 µM.

Regarding `Cc1cccc(-n2nc3c(c2NC(=O)c2ccc(S(=O)(=O)N4CCOCC4)cc2)CSC3)c1C`, the Potency was inactive: > 76.9 µM.

Regarding `CCn1cc(C(=O)NCC2CCCO2)c(=O)c2cc(S(=O)(=O)N3CCCCCC3)ccc21` (configuration not stated), the Potency was inactive: > 76.9 µM.

For the compound `Cc1nn(-c2ccccc2)c(Cl)c1C1C(C#N)=C(N)OC2=C1C(=O)CCC2` (configuration not stated), the Potency result was “inactive”.

Turning to `CS(=O)(=O)Nc1ccc(N2CCCCC2)c(Cl)c1`, the Potency is inactive: > 76.9 µM.

For the compound `O=C(NCc1ccccc1)N1CCN(c2ccccc2F)CC1`, the Potency is inactive: > 76.9 µM.

Turning to `Cc1cccc2cc(C(c3nnnn3CC3CCCO3)N3CCCc4ccccc43)c(=O)[nH]c12` (configuration not stated), the Potency is inactive: > 76.9 µM.

With `Oc1ccc(-c2nnc(SCC3CCCCC3)o2)cc1`, the Potency is inactive: > 76.9 µM.

With `O=C(Nc1cccnc1)c1c(F)cccc1F`, the Potency is inactive: > 76.9 µM.

On to `COc1ccc(-n2nnnc2SC(C)C(N)=O)cc1` (configuration not stated), for which the Potency was inactive: > 76.9 µM.

`CCCc1nnc(NC(=O)CCC(=O)N2CCCCCC2)s1`: the Potency was inactive: > 76.9 µM.

For `CCCCN(C(=O)NC(=O)Nc1ccccc1OCC)S(C)(=O)=O`, the Potency is inactive: > 76.9 µM.

For the compound `COc1cc(C(C)=O)ccc1OCC(=O)c1cc(C)n(C2CC2)c1C`, the Potency was inactive: > 76.9 µM.

In the case of `CCc1ccc(NC(=O)c2cc(C(C)C)on2)cc1`, the Potency is inactive: > 76.9 µM.

`CCCNC(=O)NC(C(=O)OC)C12CC3CC(CC(C3)C1)C2` (configuration not stated): the Potency was inactive: > 76.9 µM.

Regarding `CCc1c(C)sc(NC(=O)CC#N)c1C#N`, the Potency is inactive: > 76.9 µM.

As to `COc1ccc(-c2nc(NC(=O)CSc3nnc(C)s3)ns2)cc1`, the Potency was inactive: > 76.9 µM.

As for `O=C(Cn1ncc2ccccc21)N1CCN(c2cccc(C(F)(F)F)c2)CC1`, the Potency is inactive: > 76.9 µM.

In the case of `CCN(CC)CCNc1nc2c(c(=O)[nH]c(=O)n2C)n1CC(O)COc1ccc(Cl)cc1Cl` (configuration not stated), the Potency is inactive: > 76.9 µM.

Take `Cc1ccc(C)c(NC(=O)CNS(=O)(=O)c2ccccc2)c1`: the Potency is inactive: > 76.9 µM.

For the compound `CCc1ccc2[nH]c(=O)c(CN(CCCN3CCOCC3)C(=O)Nc3ccccc3)cc2c1`, the Potency result is “inactive”.

As to `CCOC(=O)C1CCCN(CCC(=O)Nc2c(C(=O)OC)[nH]c3cc(OC)ccc23)C1` (configuration not stated), the Potency is inactive: > 76.9 µM.

On to `O=C1C2C3C=CC(C3)C2C(=O)N1Cc1ccccc1` (configuration not stated), for which the Potency is inactive: > 76.9 µM.

Turning to `Cc1nn(C)cc1CNC(=O)C1C2CCC(O2)C1C(=O)O` (configuration not stated), the Potency was inactive: > 76.9 µM.

As to `Cc1nn(C)c(C)c1NC(=O)CSc1nc(-c2ccccc2F)nc2c1cnn2-c1ccccc1`, the Potency is inactive: > 76.9 µM.

As for `CN(c1nc(-c2ccccc2)cs1)C1CCS(=O)(=O)C1` (configuration not stated), the Potency is inactive: > 76.9 µM.

For the compound `CCC(=O)n1nc(NCc2ccc(OC)c(OC)c2)nc1NCc1ccc(OC)c(OC)c1`, the Potency was inactive: > 76.9 µM.

For `CCOc1ccccc1C(=O)Nc1ccccc1O`, the Potency was inactive: > 76.9 µM.

`CC1CCCCC1NS(=O)(=O)c1ccc(-n2cnnn2)cc1` (configuration not stated): the Potency was inactive: > 76.9 µM.

On to `COc1ccccc1CNC(=O)c1cc2sccc2n1C`, for which the Potency was inactive: > 76.9 µM.

Take `Cn1c(=O)c2c(nc(CN3CCN(c4ccccc4)CC3)n2Cc2c(F)cccc2Cl)n(C)c1=O`: the Potency was inactive: > 76.9 µM.

In the case of `CCOCCCNC(=O)c1ccc(OC(C)=O)cc1`, the Potency is inactive: > 76.9 µM.

Turning to `c1ccc(Cc2nnc3sc(Nc4ccccc4)nn23)cc1`, the Potency was inactive: > 76.9 µM.

For the compound `CCCCc1c(O)nc(SCC(=O)N2CCOCC2)n(-c2ccccc2C)c1=O`, the Potency was inactive: > 76.9 µM.

Regarding `CCCOC(=O)C1[C@H]2C(=O)N(CCCOC)C[C@]23C=C[C@H]1O3` (some centres not stated), the Potency is inactive: > 76.9 µM.

As to `O=C(O)CCC(=O)Nc1ccc(N2CCCCC2)c(C(=O)O)c1`, the Potency was inactive: > 76.9 µM.

As for `NC(=O)C1CCN(C(=O)CSc2ccccn2)CC1`, the Potency was inactive: > 76.9 µM.

As for `Cc1c(-c2ccccc2)oc2nc3c(c(=O)n(C)c(=O)n3C)n12`, the Potency is inactive: > 76.9 µM.

`Cc1ccccc1-c1nc(CN2CCC(C(=O)NCc3ccco3)CC2)c(C)o1`: the Potency was inactive: > 76.9 µM.

For `CCc1ccc(S(=O)(=O)c2n[nH]n3c2nc(=O)c2ccccc23)cc1`, the Potency was inactive: > 76.9 µM.

With `Cc1c2cccn2cc[n+]1C`, the Potency is inactive: > 76.9 µM.

Regarding `CCOc1ccc(CN2CCN(S(=O)(=O)c3ccc(NC(C)=O)cc3)CC2)cc1OC`, the Potency is inactive: > 76.9 µM.

On to `C=CCOc1ccc(C2C(C(=O)c3ccco3)=C(O)C(=O)N2CCCN(CC)CC)cc1` (configuration not stated), for which the Potency was inactive: > 76.9 µM.

Take `CCOC(=O)N1CCN(CC(=O)Nc2c(C(=O)OC)[nH]c3ccccc23)CC1`: the Potency was inactive: > 76.9 µM.
